This is one part of the list. The energies were worked out here from pooled read counts, against the library average; single values are noisy.
Molecular target: T1, Pho4 (S. cerevisiae) (UniProt P07270)
T1 sequence: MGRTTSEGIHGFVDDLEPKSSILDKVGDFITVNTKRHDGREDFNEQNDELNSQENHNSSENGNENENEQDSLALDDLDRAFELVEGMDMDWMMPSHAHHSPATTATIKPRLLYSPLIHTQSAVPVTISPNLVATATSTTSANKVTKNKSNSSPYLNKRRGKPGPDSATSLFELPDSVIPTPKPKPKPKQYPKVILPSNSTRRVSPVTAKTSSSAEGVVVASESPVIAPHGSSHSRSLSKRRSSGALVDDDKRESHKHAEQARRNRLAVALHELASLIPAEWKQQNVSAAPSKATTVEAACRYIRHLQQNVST
Assay: relative binding free energy (BET-seq); higher = weaker binding
Conditions: reference: library average

Row | Sequence | relative binding free energy
1 | AGTATCACGTGATAAT | 0.33 kcal/mol
2 | CTTTACACGTGATCGT | 0.29 kcal/mol
3 | TAAATCACGTGGGTCT | 0.03 kcal/mol
4 | CTGCTCACGTGGTGTT | -0.01 kcal/mol
5 | AGGATCACGTGTCGTG | 0.16 kcal/mol
6 | TTTTTCACGTGGACAG | 0.22 kcal/mol
7 | CGAAGCACGTGAGTGT | 0.13 kcal/mol
8 | GATGTCACGTGTAGGC | 0.27 kcal/mol
9 | GGGTTCACGTGGACAT | 0.18 kcal/mol
10 | GTAGTCACGTGCCTGT | 0.21 kcal/mol
11 | GTGTGCACGTGGTGCT | 0 kcal/mol
12 | TATGTCACGTGGCGGC | 0.01 kcal/mol
13 | GTAATCACGTGGGTGC | 0 kcal/mol
14 | AGCCGCACGTGGTGTT | -0.06 kcal/mol
15 | TTTTTCACGTGACGAG | 0.42 kcal/mol
16 | GAGGGCACGTGTTGCG | -0.1 kcal/mol
17 | GGAGTCACGTGTGGCC | 0.29 kcal/mol
18 | AGTGTCACGTGATCTG | 0.14 kcal/mol
19 | TTGTACACGTGAAAGT | 0.4 kcal/mol
20 | TTTAGCACGTGAATGG | 0.17 kcal/mol
21 | AGTGGCACGTGGAATT | -0.08 kcal/mol
22 | ATATTCACGTGTTGTT | 0.22 kcal/mol
23 | GAGGGCACGTGTCGGG | 0.01 kcal/mol
24 | ATATCCACGTGGTGTT | -0.07 kcal/mol
25 | GCTGTCACGTGTTTTA | 0.03 kcal/mol

Row | Sequence | relative binding free energy
26 | ATAAACACGTGGGGCG | -0.17 kcal/mol
27 | GGGAGCACGTGGCGCG | -0.12 kcal/mol
28 | AAATGCACGTGTTAGT | -0.02 kcal/mol
29 | GGTGACACGTGGAGAT | 0.1 kcal/mol
30 | ATGTTCACGTGAGACG | 0.32 kcal/mol
31 | GGGGGCACGTGGCGCG | -0.28 kcal/mol
32 | TGGGGCACGTGCATGG | -0.16 kcal/mol
33 | AAGGACACGTGGAGGA | 0.09 kcal/mol
34 | TTATCCACGTGTTGTA | -0.05 kcal/mol
35 | GTAGTCACGTGGCAGA | 0.14 kcal/mol
36 | CAGTTCACGTGGGTCG | 0.24 kcal/mol
37 | GCGGGCACGTGTAGTT | 0.03 kcal/mol
38 | AGCGTCACGTGAGTGC | 0.29 kcal/mol
39 | AATGTCACGTGTGAGT | 0.16 kcal/mol
40 | TCGATCACGTGGCGGG | 0.24 kcal/mol
41 | TGTAGCACGTGGAAAT | 0.09 kcal/mol
42 | CTGTGCACGTGAGGGA | 0.25 kcal/mol
43 | TATCGCACGTGTGGCT | 0.07 kcal/mol
44 | GTACGCACGTGGTGTT | -0.18 kcal/mol
45 | TGTTGCACGTGGCACG | -0.19 kcal/mol
46 | TGTGTCACGTGCGATG | 0.13 kcal/mol
47 | ATGAGCACGTGGAGAG | -0.11 kcal/mol
48 | ATCGGCACGTGTCGGT | -0.13 kcal/mol
49 | GGGGTCACGTGGATTG | 0.26 kcal/mol
50 | AGATGCACGTGACTTG | 0.08 kcal/mol

Row | Sequence | relative binding free energy
51 | GTATGCACGTGTTTTG | 0.08 kcal/mol
52 | CTTATCACGTGGTCTT | 0.07 kcal/mol
53 | GCGTGCACGTGGATTG | 0.06 kcal/mol
54 | TTTATCACGTGAATTG | 0.42 kcal/mol
55 | TTGTTCACGTGCTATG | 0.22 kcal/mol
56 | TAAATCACGTGGATGG | 0.18 kcal/mol
57 | TTCTTCACGTGTTTCT | 0.36 kcal/mol
58 | TAGAGCACGTGGGAGG | -0.19 kcal/mol
59 | GTGGACACGTGATAAT | 0.32 kcal/mol
60 | TATATCACGTGGACTG | 0.12 kcal/mol
61 | TGGTCCACGTGGTCTG | -0.14 kcal/mol
62 | TATGTCACGTGGTACA | -0.03 kcal/mol
63 | TTGAGCACGTGCGGTG | -0.16 kcal/mol
64 | TAGGTCACGTGATAGC | 0.24 kcal/mol
65 | TGCTGCACGTGTTCGT | -0.18 kcal/mol
66 | GGGATCACGTGAGGGC | 0.31 kcal/mol
67 | CGCCTCACGTGGGGGT | 0.02 kcal/mol
68 | TGTGTCACGTGAGTTT | 0.37 kcal/mol
69 | AGCTTCACGTGCGGGG | 0.11 kcal/mol
70 | GCTTTCACGTGTGTGG | 0.3 kcal/mol
71 | CTATGCACGTGGGGTT | -0.15 kcal/mol
72 | TGCTACACGTGGTCGT | 0.1 kcal/mol
73 | TAGTGCACGTGAGACG | 0.1 kcal/mol
74 | CGCGGCACGTGCGGGA | -0.09 kcal/mol
75 | TCGTGCACGTGATGTT | 0.16 kcal/mol

Row | Sequence | relative binding free energy
76 | TAGCTCACGTGTTGTG | 0.17 kcal/mol
77 | TGGAACACGTGAGGGA | 0.17 kcal/mol
78 | TTGGTCACGTGGGCTA | -0.07 kcal/mol
79 | CGTTGCACGTGAGGAG | 0.24 kcal/mol
80 | GTGTCCACGTGACGTG | 0.18 kcal/mol
81 | AGTTACACGTGGGTAA | -0.1 kcal/mol
82 | GTGCGCACGTGTTAAT | -0.04 kcal/mol
83 | TATGACACGTGGAAGT | 0.27 kcal/mol
84 | TTTATCACGTGTGTGA | 0.15 kcal/mol
85 | TGTTACACGTGAATGG | 0.32 kcal/mol
86 | TAGTTCACGTGATTGT | 0.39 kcal/mol
87 | ATAGGCACGTGGGTCA | -0.31 kcal/mol
88 | ACGGTCACGTGCAGGG | 0.02 kcal/mol
89 | TACAGCACGTGAGGGG | 0.04 kcal/mol
90 | GATCTCACGTGAGTTG | 0.33 kcal/mol
91 | TTTATCACGTGATAGG | 0.16 kcal/mol
92 | GGCGTCACGTGGTGTC | 0.01 kcal/mol
93 | CGAGTCACGTGTATTG | 0.08 kcal/mol
94 | TTATTCACGTGGGTAC | 0.15 kcal/mol
95 | TTCTGCACGTGTTGGA | 0.1 kcal/mol
96 | GGGTACACGTGTTGTG | 0.11 kcal/mol
97 | GGGGACACGTGAGGAT | 0.23 kcal/mol
98 | TAGGCCACGTGTAGGT | -0.01 kcal/mol
99 | GGGTGCACGTGTTTGA | -0.01 kcal/mol
100 | CGAAGCACGTGTTGGG | -0.04 kcal/mol

Row | Sequence | relative binding free energy
101 | GCGTTCACGTGGCAGG | 0.17 kcal/mol
102 | TTGGTCACGTGCTATG | -0.06 kcal/mol
103 | ATTGGCACGTGTAGAA | -0.07 kcal/mol
104 | GTTGTCACGTGAAATT | 0.19 kcal/mol
105 | AAGGACACGTGGTTGT | 0.03 kcal/mol
106 | GGATGCACGTGGAGGC | -0.02 kcal/mol
107 | TTGCACACGTGATTGT | 0.19 kcal/mol
108 | TAGAACACGTGGAGTG | 0.17 kcal/mol
109 | GTTGCCACGTGGTTGA | 0.03 kcal/mol
110 | TGAGGCACGTGGATAA | -0.15 kcal/mol
111 | GGTGACACGTGTCTTG | 0.08 kcal/mol
112 | GTTGTCACGTGGGTTT | 0.12 kcal/mol
113 | CGGGTCACGTGTTGTC | 0.02 kcal/mol
114 | GGGTTCACGTGTTAGC | 0.26 kcal/mol
115 | TAGTTCACGTGATAGA | 0.49 kcal/mol
116 | GGTTGCACGTGCGATG | -0.07 kcal/mol
117 | GATGACACGTGTTGAG | 0.08 kcal/mol
118 | GGTCACACGTGTGTGT | 0.18 kcal/mol
119 | GTAGACACGTGGAGAG | 0.01 kcal/mol
120 | ATTCGCACGTGGTATA | -0.07 kcal/mol
121 | TTTGGCACGTGCGTGA | -0.13 kcal/mol
122 | TTTTTCACGTGAAGCA | 0.32 kcal/mol
123 | TAATGCACGTGTGCGT | -0.13 kcal/mol
124 | TCTGTCACGTGATTGG | 0.2 kcal/mol
125 | AGTCACACGTGTTGGA | 0.01 kcal/mol

Row | Sequence | relative binding free energy
126 | ACGTACACGTGTGGAG | 0.16 kcal/mol
127 | CGGTGCACGTGTATTT | -0.09 kcal/mol
128 | ATGGTCACGTGGTAGT | 0.16 kcal/mol
129 | GTAAACACGTGATGTT | 0.14 kcal/mol
130 | ATAAACACGTGTTGGG | -0.11 kcal/mol
131 | GTAATCACGTGCGGTC | 0.35 kcal/mol
132 | CCTGTCACGTGTTGTG | 0.04 kcal/mol
133 | TGTGCCACGTGATCTG | 0.04 kcal/mol
134 | TTGGTCACGTGGAGCA | 0.04 kcal/mol
135 | TTGGACACGTGGTTTT | 0.13 kcal/mol
136 | CTATTCACGTGTGTAA | 0.21 kcal/mol
137 | CGGGGCACGTGGACGG | -0.11 kcal/mol
138 | GTTAGCACGTGGTGAT | -0.07 kcal/mol
139 | GATTCCACGTGGGGTA | -0.12 kcal/mol
140 | ATCTGCACGTGGTTCG | -0.06 kcal/mol
141 | AGTGACACGTGTATAT | -0.05 kcal/mol
142 | ACGGGCACGTGGGTTA | -0.26 kcal/mol
143 | AGCGGCACGTGGTGGG | -0.08 kcal/mol
144 | ATTATCACGTGTAGAT | 0.15 kcal/mol
145 | TATGGCACGTGGGCTG | -0.31 kcal/mol
146 | AAACGCACGTGGGGAG | -0.19 kcal/mol
